Measurements reported in PubChem BioAssay AID2675 (National Center for Advancing Translational Sciences (NCATS), 2010).
Among all 280,000 compounds or so, about 100 (0.036%) were called active. The shares of active, inactive and inconclusive entries below differ from those in the screen. Calls follow the shape of the dose curve; as a rule, active = well fitted inhibition curve with a large enough effect in the signal ratio, with a control signal flat (not every such curve was filed as active); inconclusive = small, poorly fitted or top-dose-only effect, or effect the other way, or a change in a side signal; inactive = no such curve, though single readings can be large or run the other way; the % refers to the signal ratio. Where the call is inconclusive, the potency comes from a doubtful curve fit. “Side channel” marks fits to a control or component signal instead of the main read-out.

What follows are compounds tested against Muscleblind-like protein 1 (Homo sapiens) (UniProt Q9NR56) (assay: qHTS Assay for Inhibitors of MBNL1-poly(CUG) RNA binding). Details: TR-FRET MBNL1-His/biotin-(CUG)12 binding, 665/545 ratio; activity change, negative = inhibition: at 57.5 µM (top of the series).
Method in brief: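 His-tagged MBNL1 binding to biotinylated (CUG)12 RNA was measured by TR-FRET using terbium anti-His antibody (0.055 ng/ul final) and streptavidin-XL665 (5 nM final). Compounds were titrated 92 nM to 58 uM; 60 min at room temperature.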
% is scaled to controls: 0 for no effect and ±100 for the full control effect; potency is read from the fitted curve at half-maximal effect; tags tell the direction and shape of the fitted curve or compound fluorescence and quenching.

Chain of UniProt Q9NR56 (Q9NR56 whole entry, looked up): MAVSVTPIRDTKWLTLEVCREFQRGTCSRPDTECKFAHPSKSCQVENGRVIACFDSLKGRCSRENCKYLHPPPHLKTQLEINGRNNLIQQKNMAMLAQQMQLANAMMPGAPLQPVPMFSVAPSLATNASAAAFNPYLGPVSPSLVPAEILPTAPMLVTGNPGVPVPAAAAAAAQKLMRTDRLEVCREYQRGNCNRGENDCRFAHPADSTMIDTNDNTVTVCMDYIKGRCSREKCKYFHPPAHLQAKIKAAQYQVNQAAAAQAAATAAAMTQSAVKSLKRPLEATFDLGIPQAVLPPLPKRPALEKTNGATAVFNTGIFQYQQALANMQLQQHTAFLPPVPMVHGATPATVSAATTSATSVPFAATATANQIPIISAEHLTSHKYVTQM

Row | SMILES | Potency | activity change, negative = inhibition
1 | COc1ccc(/C=N/Nc2nccnc2Cl)c(OC)c1 | inconclusive: 28.2 µM [quencher, side channel, single point] | –
2 | O=C(Cn1cnc2cc([N+](=O)[O-])ccc2c1=O)Nc1ccc2c(c1)OCO2 | inconclusive: 8.91 µM [quencher, side channel, partial curve] | –
3 | Cc1cc(=O)[nH]c(SCc2cn3ccccc3n2)n1 | – | inactive: -11.8%
4 | CCn1c2nc(SCCN3CCOCC3)nnc2c2cc(C)cc(C)c21 | inconclusive: 15.8 µM [quencher, partial curve] | –
5 | CCCCC(=O)Nc1nnn(CCC)n1 | – | inactive: -3.9%
6 | CCOc1ccc(C(=O)N/N=C(\c2ccccc2)c2ccccn2)cc1 | – | inactive: 19.5%
7 | COc1ccc(CCC(C)NCc2ccc(F)cc2)cc1 (stereo unspecified) | – | inactive: -3.49%
8 | Cc1ccccc1NC(=O)CSc1nnc(-c2ccccc2)n1-c1ccccc1 | inconclusive: 35.5 µM [fluorescent, side channel, single point] | –
9 | Cc1nn(C)cc1/C=N/NC(=O)c1sc2ccccc2c1Cl | inconclusive: 22.4 µM [quencher, side channel, partial curve] | –
10 | COC(=O)/C(=C/c1ccc2c(c1)c1ccccc1n2C)NC(=O)c1ccccc1 | inconclusive: 28.2 µM [quencher, side channel, partial curve] | –
11 | CC(=O)c1cccc(Nc2nc(N3CCOCC3)nc(N3CCOCC3)n2)c1 | – | inactive: 1.17%
12 | CCCCCc1cc(=O)oc2c(C(CCN3CCN(c4ccccc4)CC3)c3ccc(N(C)C)cc3)c(OC)cc(OC)c12 (stereo unspecified) | – | inactive: -4.05%
13 | CS(=O)(=O)N(CC(=O)NCCC1=CCCCC1)c1cccc([N+](=O)[O-])c1 | inconclusive: 20 µM [quencher, side channel, partial curve] | –
14 | CCN(CCNC(=O)CN1CCN(Cc2ccc(Cl)cc2)C1=O)c1ccccc1 | – | inactive: -0.636%
15 | COc1ccc(C(=O)n2cc(C(=O)c3cc(C)ccc3O)cn2)cc1 | – | inactive: -0.638%
16 | O=C(N/N=C/c1ccccn1)c1ccc(Cl)cc1 | inconclusive: 35.5 µM [quencher, side channel, single point] | –
17 | COc1ccc(NC(=O)Cn2cnc3sc(C)c(S(=O)(=O)N4CCN(C)CC4)c3c2=O)cc1OC | inconclusive: 126 µM [inhibitor, partial curve] | –
18 | Cc1ccccc1-n1c(Cn2c(=O)sc3ccccc32)nnc1SCC(N)=O | inconclusive: 0.708 µM [fluorescent, side channel, single point] | –
19 | CCN(CC(=O)Nc1ccc(NC(C)=O)cc1)CC(=O)Nc1ccc(Cl)c(Cl)c1 | – | inactive: 5.3%
20 | COc1ccc(NC(=O)/C(C#N)=C/c2ccc(-c3ccccc3C(=O)O)o2)cc1 | inconclusive: 11.2 µM [quencher, partial curve] | –
21 | COc1cccc(-c2cc(=O)c3ccccc3o2)c1N | inconclusive: 12.6 µM [quencher, side channel, partial curve] | –

Row | SMILES | Potency | activity change, negative = inhibition
22 | Cc1cccc(N=c2c([N+](=O)[O-])nn(-c3ccc(Cl)cc3)n2O)c1 | inconclusive: 10 µM [quencher, side channel, partial curve] | –
23 | CC(Sc1nnc2ccccn12)C(=O)Nc1ccc2c(c1)OCCO2 (stereo unspecified) | inconclusive: 126 µM [inhibitor, single point] | –
24 | Cc1ccc(S(=O)(=O)c2c(N)n(Cc3ccco3)c3nc4ccccc4nc23)cc1 | – | inactive: 12.2%
25 | O=C(Oc1cc(=O)oc2ccccc12)c1cccnc1Cl | inconclusive: 100 µM [inhibitor, partial curve, poor fit] | –
26 | O=C(N/N=C/c1cc([N+](=O)[O-])ccc1Cl)c1ccc2nc[nH]c2c1 | inconclusive: 10 µM [quencher, side channel, partial curve] | –
27 | CCOc1ccccc1NC(=O)c1nc(S(=O)(=O)Cc2ccccc2)ncc1Cl | – | inactive: 1.6%
28 | CN(Cc1ccccc1)S(=O)(=O)c1cccc2nsnc12 | inconclusive: 15.8 µM [quencher, side channel, partial curve] | –
29 | O=C(CN1C(=O)c2cccc3cccc(c23)C1=O)NCCCO | inconclusive: 14.1 µM [quencher, side channel, partial curve] | –
30 | CC(=O)N1CCN(C(=S)c2cccc([N+](=O)[O-])c2)CC1 | inconclusive: 39.8 µM [quencher, side channel, single point] | –
31 | CC(=O)Nc1ccc(NC(=O)C(NS(=O)(=O)c2cccc3nsnc23)C(C)C)cc1 (stereo unspecified) | inconclusive: 15.8 µM [quencher, side channel, partial curve] | –
32 | O=C(CN1C(=O)S/C(=C\c2ccc(F)cc2)C1=O)NCCCn1ccnc1 | inconclusive: 8.91 µM [quencher, side channel, partial curve] | –
33 | CCCOc1cccc(-c2cc(C(=O)NNC(=S)NCC)c3ccccc3n2)c1 | inconclusive: 39.8 µM [fluorescent, side channel, single point] | –
34 | CC1(C)CC(=O)C2=C(C1)Nc1ccccc1N=C2 | inconclusive: 2.24 µM [quencher, side channel, full curve] | –
35 | Cn1nccc1NC(=O)Nc1ccc(Cl)cc1 | active: 39.8 µM | –
36 | N#C/C(=C/c1ccc(N2CCOCC2)o1)c1ccc(Br)cc1 | – | inactive: 7.78%
37 | NC1=NC(=O)/C(=C\c2cccs2)S1 | inconclusive: 22.4 µM [quencher, side channel, single point] | –
38 | Cc1ccc2nc3c(cc(C(=O)NCCCn4ccnc4)n3C)c(=O)n2c1 | inconclusive: 15.8 µM [quencher, side channel, partial curve] | –
39 | C=CCN1C(=O)C2(c3ccccc31)C1CCCC=C1C(C#N)=C(N)C2(C#N)C#N (stereo unspecified) | inconclusive: 28.2 µM [quencher, side channel, single point] | –
40 | CCN(C(=O)c1cc2c(=O)n3ccccc3nc2n1CCCOC)C1CCCCC1 | inconclusive: 10 µM [quencher, side channel, partial curve] | –
41 | Cc1cccc(C)c1NC(=O)C(c1cccc([N+](=O)[O-])c1)N(C)C(=O)c1ccccn1 (stereo unspecified) | inconclusive: 12.6 µM [quencher, partial curve] | –
